Laboratory results as given in the supplement of paper PMC11417369.
± gives the standard deviation of the averaged measurements. This is one part of the list.

Tested on: PfAP2-LT AP2 domain (GST-tagged)
Assay: gcPBM binding intensity (ln(normalized median fluorescence intensity)); higher = stronger DNA binding
In short: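 Binding intensity is defined as the maximum Masliner-normalised natural-log median intensity across replicate spots for either probe orientation. It was measured on an Agilent 4 × 180k array of primer-extended double-stranded 36-bp intergenic genomic probes and negative controls, to which GST-tagged P. falciparum DNA-binding domains made in E. coli were applied for 1 h in 1× PBS with 1% milk, 0.2 mg/ml BSA, 0.5% salmon testes DNA and 0.03% Triton X-100. Detection was by Alexa488 anti-GST antibody and scanning at 488 nm.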

Row | Sequence | gcPBM binding intensity (ln)
1 | AATTTGATTATAAATTGTACATATATATATTAAAAG [XGTACX_site5461] | 8.66 ± 0.35
2 | ATTGTTAAATATAATACACACGTTTTTAAAAATATA [CACACA_site5239] | 8.72 ± 0.42
3 | TAAAAATAAATAAATACATGCACCAAAAATAAATTT [TGCATGCA_site801] | 8.9 ± 0.42
4 | ATTGCCATTGTTAATGCATGTAACAATTCAGCTCAT [TGCATGCA_site56] | 8.8 ± 0.43
5 | TAATTGTACACATGCACACACAAATATTATAGATGT [CACACA_site6528] | 9.47 ± 0.34
6 | TGTATAACATTTAGGTGTACAATTATATATAATATA [XGTACX_site8131] | 8.57 ± 0.4
7 | TTGAGAAAAATTAATGGTACACATATTATAAGTATA [XGTACX_site6539] | 8.74 ± 0.45
8 | TGACATATTATTAGGTGGTCACGTCTCCACGTCAAG [XGTACX_site7943] | 8.69 ± 0.48
9 | AAGAAAAAAAAAAAAACACACATATATTTATTTATA [CACACA_site7042] | 8.49 ± 0.54
10 | TATACACATAGACACACACACAAAAAAAAAAAAAAA [CACACA_site6338] | 9.68 ± 0.59
11 | GAAAGAAAAAATGATGAATAGAGATCAAATCTATAT [XGTACX_negctrl_site28] | 8.66 ± 0.52
12 | TAAAAATTTGATCAAACACACGTTGCATAAATTATA [CACACA_site6040] | 8.77 ± 0.34
13 | AGGCTATAATACCATACACACATTTATAAAATAACA [CACACA_site6990] | 9.07 ± 0.42
14 | ACATATATTTATATATGTACATATGATATATACATA [XGTACX_site6122] | 8.71 ± 0.36
15 | CTTTTGTATATTATATGTACACACAATAAGTTAATA [XGTACX_site1684] | 8.84 ± 0.38
16 | TTTTTGTAAACCTACTTCATAATTATTTATATCTAT [XGTACX_negctrl_site599] | 8.64 ± 0.56
17 | TTAAAAAACATTTGAACATGCAATTGTATATGTAGA [TGCATGCA_site334] | 8.63 ± 0.45
18 | TGAAATTAAATATATACACACATATATATTTATATG [CACACA_site3516] | 8.78 ± 0.4
19 | AAACAAAAGGAAAACATATATATATTAAATGTATAT [CACACA_negctrl_site1663] | 8.86 ± 0.5
20 | ATTTAGAATGTTCCTACACACCAAATTTAAGGGTGC [CACACA_site5320] | 8.94 ± 0.49
21 | ATTACAAATTCTTTCAGTACATATAAAGAAAAAAAT [XGTACX_site7786] | 8.62 ± 0.42
22 | TTTTTTTTTCTCCATACACACTTGATAAAACTTTTT [CACACA_site4512] | 8.54 ± 0.55
23 | ATTTATATTCCAATATGTACATATTTTCGTATAACC [XGTACX_site8507] | 9.06 ± 0.47

Row | Sequence | gcPBM binding intensity (ln)
24 | GCAAAATAACAATGTTACACTTATAAAATTGAGGCA [GTGCAC_negctrl_site68] | 8.81 ± 0.49
25 | ATTGTTACATAAAATGCACACTTTCAAATATGCTAA [CACACA_site5600] | 8.72 ± 0.37
26 | ATATATACCTATATTACACACTTCTTATTCTAAGAA [CACACA_site7421] | 8.75 ± 0.45
27 | AGGGTTCATATATTAACACACACATACATATTATAT [CACACA_site8959] | 9.31 ± 0.39
28 | AGTATTCTAATTTTTAAACACACAAATATAAATAAG [CACACA_site9029] | 8.56 ± 0.46
29 | TATACACATATATATAGTACATATATAATTTACTAT [XGTACX_site1849] | 8.86 ± 0.38
30 | TATTTATTAAGACACACACACACACGCACAAAATAA [CACACA_site6254] | 10.3 ± 0.33
31 | TTCATATATAATTGTACACACAAAAACGACATTGTG [CACACA_site2074] | 8.96 ± 0.4
32 | TAAATATGAGGGAACACACACATGATATATAAATTC [CACACA_site2400] | 9.34 ± 0.37
33 | GGAAATAAAATTAAATGTACGAAAACTCATTAAATT [XGTACX_site4274] | 8.62 ± 0.57
34 | AAACGGGAGAAATAAAAATAAAAATAATAAAACAAA [XGTACX_negctrl_site586] | 8.81 ± 0.79
35 | TATACTCATGGACACACACACATACACAGACATACA [CACACA_site5024] | 9.82 ± 0.3
36 | AAATATCAACTCAAATGTACAAATCACAAAAATGTA [XGTACX_site5344] | 8.81 ± 0.43
37 | ATATATGATGTATTTGTGCACATATATATATTATTA [GTGCAC_site9471] | 8.88 ± 0.36
38 | TAAATAAAAAGACACACACACATATTTATATTTATA [CACACA_site7135] | 9.7 ± 0.19
39 | ATATTAAAAAGGAAATGTACGTAATGAAGATCAAGT [XGTACX_site3138] | 9.22 ± 0.38
40 | TAAATTGGTGCAAAGTGTACATATATATCTTTCCTA [XGTACX_site5458] | 8.72 ± 0.46
41 | GAGAAAAATATATACACACACATAAATATATACATA [CACACA_site1895] | 9.48 ± 0.26
42 | ATAAATGTGTTTATTTAACACACAAAAGAAAAAATA [CACACA_site8589] | 9.05 ± 0.54
43 | TGTATAACCTGTGTTACACACATTAAAATTTATATA [CACACA_site4449] | 8.75 ± 0.44
44 | GATATTTTTATTTGTTGTACTTAAGATAATAAATGA [XGTACX_site2891] | 8.39 ± 0.35
45 | AATATATTAAAAAAGCGTACAAGAATTGGAAAATGG [XGTACX_site6576] | 8.95 ± 0.38
